{"source": "paper PMC12102759", "target": "FITC-labelled SARS-CoV-2 N wt peptide 12-26 (SARS-CoV-2)", "assay": "fluorescence polarisation"}
{"substance": "G3BP1 NTF2-like domain (a stretch of the chain, letters omitted) (domain or fragment; FITC on the N-terminus; other documents disagree on this pair)", "values": [{"measurement": "Kd", "result": 1300, "unit": "nM"}]}
